Reference: PubChem BioAssay AID1460 (National Center for Advancing Translational Sciences (NCATS), 2008)
In all, about 270,000 compounds went through this assay and about 5,800 (2.1%) were called active. The shares of active, inactive and inconclusive entries below differ from those in the screen. The call rests on the fitted dose curve; in most records, active means well fitted inhibition curve with a large enough effect; inconclusive means small, poorly fitted or top-dose-only effect; inactive means flat fitted curve, though single readings scatter. Where the call is inconclusive, the potency comes from a doubtful curve fit.

target: Microtubule-associated protein tau (Homo sapiens) (UniProt P10636); test: qHTS for Inhibitors of Tau Fibril Formation, Thioflavin T Binding; settings: recombinant tau K18 P301L (four-repeat tau fragment), heparin-induced fibrillization, ThT fluorescence; series mostly up to 57.4 µM; activity, negative = inhibition: at the top concentration; further: nearly all actives have a fitted effect of over 55% in size
How it was run: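 K18 P301L tau (15 uM + 0.24 uM Alexa 594-tagged), heparin 20 uM, NaOAc pH 7, 6 h 37 C; ThT 30 uM, 1 h RT, ex 450/em 510 nm.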
On the % scale 0 is the no-effect control and ±100 the full control effect; potency means the concentration at half of the fitted maximal effect; tags describe the fitted curve by direction and shape.

Sequence of UniProt P10636 (P10636 whole entry, looked up, the tested form may be a part): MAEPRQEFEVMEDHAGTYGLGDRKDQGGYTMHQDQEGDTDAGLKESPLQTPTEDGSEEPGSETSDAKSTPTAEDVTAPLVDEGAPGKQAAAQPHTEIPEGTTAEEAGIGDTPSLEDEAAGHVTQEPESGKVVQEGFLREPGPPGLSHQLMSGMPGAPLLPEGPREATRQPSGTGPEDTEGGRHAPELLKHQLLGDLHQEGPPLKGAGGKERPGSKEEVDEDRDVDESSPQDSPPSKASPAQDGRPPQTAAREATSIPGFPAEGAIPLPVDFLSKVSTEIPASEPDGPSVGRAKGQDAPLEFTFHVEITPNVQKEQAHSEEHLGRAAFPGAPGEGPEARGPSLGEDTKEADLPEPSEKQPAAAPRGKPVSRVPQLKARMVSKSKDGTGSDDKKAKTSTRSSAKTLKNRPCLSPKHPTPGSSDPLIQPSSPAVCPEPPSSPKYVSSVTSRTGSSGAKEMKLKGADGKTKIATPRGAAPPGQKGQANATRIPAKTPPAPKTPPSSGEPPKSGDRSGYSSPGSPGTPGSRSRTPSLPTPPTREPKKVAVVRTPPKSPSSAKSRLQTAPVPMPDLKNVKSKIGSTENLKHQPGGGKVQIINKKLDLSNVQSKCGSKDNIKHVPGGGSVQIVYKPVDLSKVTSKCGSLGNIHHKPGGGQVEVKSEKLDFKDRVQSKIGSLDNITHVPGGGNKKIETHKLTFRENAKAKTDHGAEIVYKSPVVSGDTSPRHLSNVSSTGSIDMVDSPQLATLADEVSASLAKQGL

SMILES | Potency | activity, negative = inhibition
CCn1c2ccccc2c2cc(/C=N/NC(=O)c3cccc(C)c3)ccc21 | inconclusive: 1.58 µM [inhibitor, full curve] | 
CCCn1c(CCC(=O)Nc2ccc(OCC)cc2)nc2cccnc21 |  | inactive: -9.03%
S=c1[nH]c2ccc(Cl)cc2s1 | inconclusive: 5.01 µM [inhibitor, full curve, poor fit] | 
O=c1cc(O)cc(/C=C/c2ccc(O)c(O)c2)o1 | inconclusive: 14.1 µM [inhibitor, partial curve] | 
COc1ccc(OCC(O)CNS(=O)(=O)c2cccc(Cl)c2)cc1 (stereo not drawn) |  | inactive: 0.692%
Cc1ccc(CNC(=O)COc2ccc(C(=O)c3ccc(F)cc3)cc2)cc1 |  | inactive: 2.54%
COC(=O)c1scc(-c2ccc(C)cc2)c1S(=O)(=O)N1CCN(c2ccc(C(C)=O)cc2)CC1 | inconclusive: 44.7 µM [inhibitor, single point] | 
Cc1ccc2c(c1)c1c(n2CC(O)Cn2c(C)nc3ccccc32)/C(=N\O)CCC1 (stereo not drawn) | inconclusive: 39.8 µM [inhibitor, partial curve] | 
Cc1ccc(Cl)cc1N1CCN(C(=O)Cn2cnc3sc(C)c(S(=O)(=O)N4CCC(C)CC4)c3c2=O)CC1 | inconclusive: 10 µM [inhibitor, partial curve] | 
COc1ccc2cc3c(N)nn(C(=O)c4ccccc4[N+](=O)[O-])c3nc2c1 | inconclusive: 12.6 µM [inhibitor, partial curve] | 
Cc1cccc2c1N(C(=O)c1ccco1)C(C)(C)c1ssc(=S)c1-2 | inconclusive: 3.55 µM [inhibitor, full curve] | 
CSC(=Nc1ccc(Cl)cc1)N[n+]1ccccc1 |  | inactive: -1.65%
Cc1nn(C)c(Cl)c1CN1CCN(C2CCCC2)C(CCO)C1 (stereo not drawn) |  | inactive: 6.15%
CCc1ccccc1NC(=O)CCNS(=O)(=O)c1ccc2c(c1)CCN2C(=O)C1CC1 |  | inactive: -5.18%
C=CCOC(=O)C1=C(C)OC(N)=C(C#N)C1c1ccc2c(c1)OCO2 (stereo not drawn) | inconclusive: 39.8 µM [inhibitor, single point] | 
Cc1ccc(Cl)cc1NC(=O)C(C)n1nc(-c2ccccc2)ccc1=O (stereo not drawn) |  | inactive: 15.6%
CCN(C(=S)Nc1cccnc1)c1ccccc1 |  | inactive: -7.67%
COC(=O)NCC(c1cccnc1)N1CCN(c2ccc(F)cc2)CC1 (stereo not drawn) |  | inactive: -10.7%
Cc1nc(SCC(=O)c2ccc(Cl)s2)c2oc3ccccc3c2n1 |  | inactive: -2.91%
Cc1ccc(CNC(=O)CCCn2c(=O)c3ccccc3n(CC(=O)Nc3ccc(C)c(C)c3)c2=O)cc1 |  | inactive: 1.32%
COc1ccc(CNC(=O)/C=C/C(=O)O)cc1OC |  | inactive: 3.43%
c1ccc(CCc2nn3c(Cc4ccccc4)nnc3s2)cc1 |  | inactive: -16.5%
COc1ccc(C(=O)Nc2nnc(SCc3cc(=O)c4cc(C)cc(C)c4[nH]3)s2)cc1 | inconclusive: 2.82 µM [inhibitor, full curve, poor fit] | 
CNC(=O)CSc1nc2nn(-c3ccccc3)c(=O)c-2c2n1CCCCC2 |  | inactive: -7.74%
O=C(NC1CCN(C(=O)c2cccs2)CC1)c1ccccc1 |  | inactive: -3.73%

SMILES | Potency | activity, negative = inhibition
Cn1c(SCC(=O)Nc2nccs2)nnc1-c1ccncc1 |  | inactive: -6.08%
Cc1cc(C)c2c(=O)nc(SCc3ccccc3C)n(C3CC3)c2n1 | inconclusive: 15.8 µM [inhibitor, single point] | 
Nc1ccc(S(N)(=O)=O)cc1 |  | inactive: -1.68%
O=C(COc1ccc(OCc2ccccc2)cc1)NN=C1CCCC1 | inconclusive: 22.4 µM [inhibitor, partial curve] | 
Cc1ccc(-n2ncc3c(Nc4cccc(C)c4C)ncnc32)cc1 | inconclusive: 10 µM [inhibitor, partial curve] | 
CCOc1cc([N+](=O)[O-])c2nc(N)sc2c1 | active: 20 µM | 
COC(=O)[C@@]1(C)C=C[C@@H](Cc2ccccc2)N1C | inconclusive: 15.8 µM [inhibitor, partial curve] | 
Cc1[nH][nH]c(=O)c1N=Nc1ccc(Cl)cc1 | active: 8.91 µM | 
Cc1cccc(NC(=S)N(CCN(C)C)Cc2cc3cc(C)ccc3[nH]c2=O)c1 | inconclusive: 12.6 µM [inhibitor, partial curve] | 
Cc1c(C(=O)N2CCC(c3nc4ccccc4s3)CC2)oc2ccc(Cl)cc12 | inconclusive: 25.1 µM [inhibitor, single point] | 
COc1cc(NS(=O)(=O)c2ccc(NC(=O)/C=C/c3ccc([N+](=O)[O-])cc3)cc2)ncn1 | inconclusive: 3.55 µM [inhibitor, full curve] | 
CC(c1ccco1)N(C(=O)COc1ccccc1[N+](=O)[O-])c1ccccn1 (stereo not drawn) |  | inactive: -4.05%
Cc1ccc2[nH]c(=O)c(CN(Cc3ccccc3)Cc3nnnn3C3CCCC3)cc2c1 | inconclusive: 22.4 µM [inhibitor, partial curve] | 
COc1ccc(-n2c(Cc3cccs3)nnc2SCC(=O)Nc2ccc3c(c2)OCCO3)cc1 |  | inactive: -14.1%
COc1ccccc1N1CCN(S(=O)(=O)c2c(C)sc3ncn(CC(=O)N(C)c4ccc(Cl)cc4)c(=O)c23)CC1 |  | inactive: -6.17%
CCn1c(CNC(=O)Cc2ccc(OC)cc2)nnc1SCC(=O)c1ccccc1 | inconclusive: 44.7 µM [inhibitor, single point] | 
CC1=NN(c2ccccc2)C(=O)/C1=C\c1cc(C)n(-c2ccccc2)c1C | active: 7.94 µM | 
CCCCn1c(N)c(N(CCC(C)C)C(=O)COC(=O)c2ccco2)c(=O)[nH]c1=O |  | inactive: 1.14%
Clc1ccc(-c2nc3sccn3c2/C=N/OCc2ccc(Cl)c(Cl)c2)cc1 | inactive | 
Cc1ccc(OCc2ccc(-c3nc(C#N)c(NCc4cccnc4)o3)o2)cc1 | inconclusive: 25.1 µM [inhibitor, partial curve] | 
CCc1cccc(-n2nnc(-c3nsc(NC(=O)c4cccs4)n3)c2C)c1 | inconclusive: 0.178 µM [inhibitor, partial curve] | 
O=C(Nc1ccccc1)Nc1cccc(-c2cn3cccnc3n2)c1 | inconclusive: 39.8 µM [activator, single point] | 
COc1ccccc1Nc1nc(N)nc(CSC(=S)N2CCCCC2C)n1 (stereo not drawn) | inconclusive: 31.6 µM [inhibitor, single point] | 
Cc1cc(-c2ccco2)n(-c2ccccc2)n1 | active: 31.6 µM | 
COc1cc(/C=N/NC(=O)COc2ccccc2[N+](=O)[O-])ccc1OC(=O)c1ccco1 | inconclusive: 20 µM [inhibitor, partial curve] | 

SMILES | Potency | activity, negative = inhibition
CC1=C(C(=O)Nc2ccc(C)cc2C)C(c2cccs2)NC(=S)N1 (stereo not drawn) | inconclusive: 39.8 µM [inhibitor, single point] | 
CCOc1ccc(CNC(=O)Cn2cc3c(n2)-c2c(oc(C(=O)N4CCOCC4)c2C)CC3)cc1 |  | inactive: -13%
COc1ccccc1N1CCN(CCCNC(=O)c2cnn(-c3cccc(Cl)c3)c2C2CCN(C(=O)OC(C)(C)C)CC2)CC1 | inconclusive: 31.6 µM [inhibitor, single point] | 
CCC(=Nc1ccc(N)cc1)C1=C(O)C(C(=O)OC)C(C)(C)CC1=O (stereo not drawn) | active: 7.08 µM | 
CCC1CO/C(=C(\C(Cl)=C(Cl)Cl)[N+](=O)[O-])N1 (stereo not drawn) | active: 35.5 µM | 
C=CCN(C(=O)CSc1nc2c(sc3ccccc32)c(=O)n1CCN(CC)CC)c1ccccc1 | inconclusive: 31.6 µM [inhibitor, partial curve] | 
CC(=O)Nc1c(O)nc(SCC(=O)Nc2nnc(SCc3ccccc3)s2)[nH]c1=O | inconclusive: 28.2 µM [inhibitor, partial curve] | 
CCOC(=O)c1cc(-c2ccccc2)n(CCC(=O)N2CCN(c3ccccc3OC)CC2)c1C | inconclusive: 14.1 µM [inhibitor, single point] | 
COc1ccc(N2CCCn3c2nc2c3c(=O)n(Cc3ccc(C)cc3)c(=O)n2C)c(OC)c1 | inconclusive: 20 µM [inhibitor, single point] | 
NC1=NC[C@H](Cc2ccc(O)cc2)N1CCc1cccc(F)c1 | inconclusive: 22.4 µM [activator, single point] | 
COc1cc2c(cc1OC)CN(C(=O)CSc1nc3[nH]ncc3c(=O)n1-c1ccccc1)CC2 |  | inactive: -16.9%
COc1cccc2cc(C(=O)NCCc3c(C)[nH]c4ccc(F)cc34)c(=O)oc12 | inconclusive: 8.91 µM [inhibitor, full curve] | 
CC1CCN(S(=O)(=O)c2ccc3c(ccn3CCC(=O)NCc3ccc(N(C)C)cc3)c2)CC1 |  | inactive: -18.4%
COc1cccc(C(=O)Nc2ccc3c(c2)C(=O)N(CCC(=O)O)C3=O)c1 |  | inactive: -7.44%
COc1ccc(C2=NOC(C(=O)Nc3ccc4c(c3)OCO4)C2)cc1OC (stereo not drawn) | inconclusive: 22.4 µM [inhibitor, partial curve] | 
COc1ccc(-c2csc(-c3ccccc3)n2)c(OC)c1 | inconclusive: 17.8 µM [inhibitor, partial curve] | 
COc1ccc(-c2cc(C(=O)N3CCc4ccccc4C3)no2)cc1OC | inconclusive: 15.8 µM [inhibitor, partial curve] | 
c1ccc(-c2nc3nc4ccccc4nc3n2Cc2ccco2)cc1 | inconclusive: 15.8 µM [inhibitor, partial curve] | 
CCc1ccc(NC(=O)CC2C(=O)N(c3cccc(C)c3)C(=O)N2Cc2ccco2)cc1 (stereo not drawn) |  | inactive: -7.37%
CC(=O)N1CCCC1c1nc2ccccc2n1Cc1ccccc1C (stereo not drawn) | inconclusive: 22.4 µM [inhibitor, single point] | 
Cc1csc(-c2cccnc2)n1 |  | inactive: 2.29%
C/C(N)=C(/C#N)C(=O)CSc1nc2ccccc2c(=O)n1-c1ccccc1C |  | inactive: 11.6%
Cc1cc(N2CCN(c3nc(-c4ccccc4)cs3)CC2)c2ccccc2n1 | inconclusive: 17.8 µM [inhibitor, partial curve] | 
